According to the supplement of paper PMC7826260:
Some of the results follow. One pool of 16,384 single-stranded DNAs met each Rep nickase domain in vitro at 3 µM enzyme and 37 °C for 1 h; the strands have 90 letters, of which the middle is given. Numbers give uncut DNA relative to the enzyme-free pool, as log2; the lower, the more was cut; hits are not called. Counts are relative to all reads; values above 0 arise when much of the pool is cut.

These sequences were tested on T1, Rep nickase domain of tomato golden mosaic virus (assay: uncleaved DNA left, log2 of reads against the no-enzyme library (log2 ratio); higher = less cleavage (more negative = more Rep cleavage of the k-mer); sequences stand for … in CTCGTCCG…ACCGGAGA).
T1 sequence (protein, residues 1-124, tag omitted): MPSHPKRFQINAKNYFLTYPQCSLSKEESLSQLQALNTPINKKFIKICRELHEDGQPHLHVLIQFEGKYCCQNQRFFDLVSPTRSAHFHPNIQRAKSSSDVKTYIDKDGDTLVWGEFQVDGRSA
Description: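 A pool of 90-nt single-stranded DNAs with seven random bases just before the constant AC of the nick site (name = the seven bases) was cut by 3 µM recombinant His6-SUMO-tagged Rep nickase domain (300 nM DNA, 50 mM HEPES pH 8.0, 50 mM NaCl, 1 mM MnCl2, 1 h, 37 °C, three replicates). Uncut DNA was amplified and sequenced.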

Sequence | uncleaved DNA left (log2)
GCCGTAT | -0.0187
TCAAACG | -0.0641
CTATTAG | -0.124
GGTCTGA | 0.115
CCGGAAA | 0.0938
GTGGCAT | 0.0203
CATCTTG | -0.212
GGGTTGA | -0.0963
ATAACGT | -0.0793
TGTGTCC | -0.172
GGCGATG | -0.0275
AATGCAT | -0.0333
GTTTTTC | 0.0259
CGCTTAA | -0.164
GATGGAG | 0.0908
TCGGACG | 0.00712
GTAATGG | 0.0428
CACCATT | -0.354
TGCTCGA | -0.201
GCCGAGA | 0.122

Sequence | uncleaved DNA left (log2)
TGTTATC | -0.0202
TAGCCGG | 0.14
AACAAGT | 0.111
GCGGCTC | -0.0102
CATCCCC | -0.247
CGACAAC | -0.0915
ACAGAGT | 0.0557
TGACGCA | 0.0501
GTAGAGC | -0.0104
ACTCTGC | -0.0868
TAACTGT | -0.277
ACTAAAG | 0.0237
TTGTTAT | -0.00536
GGGCTAA | -0.0339
AGAGTGC | 0.0846
CCATAGT | -0.188
ATCAGGA | 0.0994
TTGTACC | -0.163
CAATTCG | -0.0739
CGTAACA | -0.181
